These results are taken from the supplement of paper PMC8728848.

The other results are listed elsewhere or left out.

Assay in all cases: glycan array binding signal (z-score within array); higher = stronger binding
What all share (conditions): glycan notation: IUPAC condensed, linker removed; mutation: W10H

Experiment [1] addresses GlcNAc(a1-6)Gal(b1-4)GlcNAc. The method, boiled down: (§1)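 The binding signal is a Z-score computed within each array and averaged over linkers. Arrays of the same protein sequence at different concentrations or buffers were also averaged together. Data originate from 3228 arrays in the Consortium for Functional Glycomics database, kept only where the protein sequence was available.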

The target in experiment [2] is GlcNAc(b1-2)Gal(b1-3)GalNAc. The essentials: as §1
The target of experiment [3] is GlcNAc(b1-2)Man(a1-3)[GlcNAc(b1-2)Man(a1-6)]Man(b1-4)GlcNAc(b1-4)GlcNAc. The method, boiled down:
as §1

Experiment [4] has as its target GlcNAc(b1-2)Man(a1-3)[GlcNAc(b1-2)Man(a1-6)]Man(b1-4)GlcNAc(b1-4)[Fuc(a1-6)]GlcNAc. The method, boiled down: as §1
Experiment [5] addresses GlcNAc(b1-2)Man(a1-3)[GlcNAc(b1-4)][GlcNAc(b1-2)Man(a1-6)]Man(b1-4)GlcNAc(b1-4)GlcNAc. The method, boiled down:
as §1

Experiment [6] has as its target GlcNAc(b1-2)Man(a1-3)[GlcNAc(b1-4)][GlcNAc(b1-2)Man(a1-6)]Man(b1-4)GlcNAc(b1-4)[Fuc(a1-6)]GlcNAc. The essentials:
as §1

For experiment [7], the target named is GlcNAc(b1-2)[GlcNAc(b1-4)]Man(a1-3)[GlcNAc(b1-2)Man(a1-6)]Man(b1-4)GlcNAc(b1-4)GlcNAc. The essentials:
as §1

Experiment [8] deals with GlcNAc(b1-2)[GlcNAc(b1-4)]Man(a1-3)[GlcNAc(b1-4)][GlcNAc(b1-2)Man(a1-6)]Man(b1-4)GlcNAc(b1-4)GlcNAc. The essentials:
as §1

For experiment [9], the target named is GlcNAc(b1-2)[GlcNAc(b1-4)]Man(a1-3)[GlcNAc(b1-4)][GlcNAc(b1-2)[GlcNAc(b1-6)]Man(a1-6)]Man(b1-4)GlcNAc(b1-4)GlcNAc. The method, boiled down: as §1
In experiment [10] the target is GlcNAc(b1-2)[GlcNAc(b1-4)]Man(a1-3)[GlcNAc(b1-4)][GlcNAc(b1-2)[GlcNAc(b1-6)]Man(a1-6)]Man(b1-4)GlcNAc(b1-4)[Fuc(a1-6)]GlcNAc. The method, boiled down: as §1
In experiment [11] the target is GlcNAc(b1-2)[GlcNAc(b1-6)]Man(a1-6)[GlcNAc(b1-2)Man(a1-3)]Man(b1-4)GlcNAc(b1-4)GlcNAc. The essentials:
as §1

The target of experiment [12] is GlcNAc(b1-2)[GlcNAc(b1-6)]Man(a1-6)[GlcNAc(b1-2)Man(a1-3)]Man(b1-4)GlcNAc(b1-4)[Fuc(a1-6)]GlcNAc. The method, boiled down: as §1
Experiment [13] deals with GlcNAc(b1-2)[GlcNAc(b1-6)]Man(a1-6)[GlcNAc(b1-4)][GlcNAc(b1-2)Man(a1-3)]Man(b1-4)GlcNAc(b1-4)GlcNAc. The method, boiled down: as §1
The next experiment concerns the target GlcNAc(b1-3)Fuc. The essentials: as §1
For the next experiment, the target named is GlcNAc(b1-3)Gal. The essentials:
as §1

For experiment [14], the target named is GlcNAc(b1-3)Gal(b1-3)GalNAc. The essentials:
as §1

A further experiment concerns the target GlcNAc(b1-3)Gal(b1-4)Glc. The method, boiled down:
as §1

Experiment [15] has as its target GlcNAc(b1-3)Gal(b1-4)GlcNAc. The essentials:
as §1

Experiment [16] has as its target GlcNAc(b1-3)Gal(b1-4)GlcNAc(b1-2)Man(a1-3)[GlcNAc(b1-3)Gal(b1-4)GlcNAc(b1-2)Man(a1-6)]Man(b1-4)GlcNAc(b1-4)GlcNAc. The method, boiled down:
as §1

Experiment [17] has as its target GlcNAc(b1-3)Gal(b1-4)GlcNAc(b1-2)Man(a1-3)[GlcNAc(b1-3)Gal(b1-4)GlcNAc(b1-2)Man(a1-6)]Man(b1-4)GlcNAc(b1-4)[Fuc(a1-6)]GlcNAc. The method, boiled down:
as §1

Experiment [18] deals with GlcNAc(b1-3)Gal(b1-4)GlcNAc(b1-2)[GlcNAc(b1-3)Gal(b1-4)GlcNAc(b1-6)]Man(a1-6)[GlcNAc(b1-3)Gal(b1-4)GlcNAc(b1-2)Man(a1-3)]Man(b1-4)GlcNAc(b1-4)GlcNAc. The essentials:
as §1

For experiment [19], the target named is GlcNAc(b1-3)Gal(b1-4)GlcNAc(b1-3)Gal(b1-4)GlcNAc. The method, boiled down: as §1

B1: Banana lectin (Musa acuminata) (protein)
chain: MNGAIKVGAHGGNGGSAFDMGPAYRIISVKIFSGDVVDGVDVTFTYYGKTETRHYGGSGGTPHEIVLQEGEYLVGMAGEVANYHGAVVLGKLGFSTNKKAYGPFGNTGGTPFSLPIAAGKISGFFGRGGKFLDAIGVYLEPLEHHHHHH
Regarding B1, the “glycan array binding signal (z-score)” value in experiment [1] was -0.135; in experiment [2] it was -0.178; in experiment [3], 0.116; in experiment [4], -0.148; in experiment [5], -0.166; in experiment [6], -0.179. Moreover, the “glycan array binding signal (z-score)” value was -0.142 in [7]; -0.131 in [8]; -0.16 in [9]; -0.167 in [10]; -0.181 in [11]; -0.153 in [12]. For the same molecule, the “glycan array binding signal (z-score)” value in [13] is -0.185; with GlcNAc(b1-3)Fuc it was -0.161; with GlcNAc(b1-3)Gal it was -0.197; in experiment [14] it was -0.145; in the experiment with GlcNAc(b1-3)Gal(b1-4)Glc, -0.133; in experiment [15], -0.154. Besides, the “glycan array binding signal (z-score)” value in experiment [16] is -0.147; in experiment [17] it was -0.095; in [18], -0.125; in experiment [19], -0.177.
